According to PubChem BioAssay AID2202238 (Ras Initiative Chemistry Research Team, Frederick National …, 2025):
This is one part of the list. These are further read-outs of the screen, such as a control signal, another cell line or another target. No call is given for them.

Target: GTPase KRas (Homo sapiens) (UniProt P01116)
Assay: Fragment capture on engineered cysteines, share of protein labelled (AID 2202238)
Design: protein at 5 µM with 500 µM competing thiol for 1.5 h
Settings: KRAS G12D cysteine mutants, disulfide tethering, MALDI-TOF labeling, stronger effect = higher value, fragment at 500 µM
[1] = measured here: G75C mutant labeling
[2] = measured here: H94C mutant labeling
[3] = measured here: I36C mutant labeling
[4] = measured here: L120C mutant labeling
[5] = measured here: M67C mutant labeling
[6] = measured here: M72C mutant labeling
[7] = measured here: N86C mutant labeling
[8] = measured here: P121C mutant labeling
[9] = measured here: S122C mutant labeling
[10] = measured here: S136C mutant labeling
[11] = measured here: G60C mutant labeling
[12] = measured here: N26C mutant labeling

UniProt P01116, sequence (P01116 whole entry, looked up, the tested form may be a part): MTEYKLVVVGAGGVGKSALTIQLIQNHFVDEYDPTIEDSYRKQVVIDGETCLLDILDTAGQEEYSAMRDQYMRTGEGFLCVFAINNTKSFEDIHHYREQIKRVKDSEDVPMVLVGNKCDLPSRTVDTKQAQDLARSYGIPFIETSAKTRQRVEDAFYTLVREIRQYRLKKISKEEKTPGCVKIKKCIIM

SMILES | percent labeling [1] [%] | percent labeling [2] [%] | percent labeling [3] [%] | percent labeling [4] [%] | percent labeling [5] [%] | percent labeling [6] [%] | percent labeling [7] [%] | percent labeling [8] [%] | percent labeling [9] [%] | percent labeling [10] [%] | percent labeling [11] [%] | percent labeling [12] [%]
COc1ccc(-c2csc(CCNC(=O)CCS)n2)cc1 | 7 | 25.6 | 25.6 | 6.4 | 22.5 | 18 | 8.7 | 13.3 | 11.8 | 29.5 | – | –
O=C1C[C@H](C(=O)NCCS)C[C@H](c2ccccc2)N1 | 13.8 | 27.9 | 26.7 | 37.4 | 40.7 | 23.8 | 17.7 | 34.8 | 29.2 | 69.6 | 32.3 | 37.3
O=C(Cc1ccccc1C(=O)NCCS)Nc1cccnc1 | 15 | 36.9 | 22.8 | 22.5 | 30.9 | 20 | 25.5 | 30.6 | 21.3 | 35.2 | 35.3 | 32.5
Cc1cc(C)c2c(OCC(=O)NCCS)nn(C)c2n1 | 15.2 | 23.9 | 17.3 | 26.6 | 30.4 | 46.7 | 16.2 | 19 | 17.2 | 36.2 | 30.1 | 48.2
O=C(NCCS)C1(c2cc(Cl)ccc2F)CCC1 | 11.5 | 11.7 | 14.9 | 25.9 | 16.8 | 31.2 | 16.2 | 17.9 | 18.4 | 28.1 | 34.4 | 28.1
CC(=O)NCC1(CC(=O)NCCS)CCCCC1 | 13.5 | 37.9 | 20.8 | 36 | 36 | 16.1 | 30.2 | 31.2 | 31.9 | 48.6 | 33.5 | 33
Cc1cc(C(=O)NCCS)nc2[nH]c(=O)[nH]c(=O)c12 | 14 | 33.1 | 29.6 | 52.3 | 32 | 32 | 29.8 | 36.3 | 35.8 | 53.5 | 34.8 | 47.7
Cc1nn(CC(F)F)cc1NC(=O)CCS | 12.8 | 30.7 | 40.7 | 28.8 | 29.3 | 27.1 | 32.5 | 29.6 | 36.2 | 48.4 | – | –
Cc1ccc(-c2csc(C(=O)NCCS)c2-n2cccc2)cc1 | 29.5 | 25.2 | 18.4 | 22.8 | 13.2 | 82.8 | 12.3 | 18.3 | 7.2 | 38 | 50.2 | 19.1
CC(C)NC(=O)c1cnn2c1CC(CNC(=O)CCS)CC2 (stereo not drawn) | 7.4 | 31.8 | 34.1 | 21.8 | 37.4 | 15.3 | 21.6 | 26.1 | 29.4 | 48.8 | – | –
O=C(CCS)NC(c1ccccc1)c1ccccc1 | 11.7 | 20.7 | 22.1 | 18.7 | 17.5 | 28.3 | 13 | 21.2 | 17.9 | 51.2 | – | –
O=C(NCCS)c1ccc(-c2cccc(OC(F)(F)F)c2)s1 | 12.3 | 8.2 | 4.1 | 5.1 | 0 | 34.9 | 6.7 | 4.5 | 2 | 3.6 | 13.5 | 11.5
O=C(NCCS)c1ccc(F)cc1Cl | 26.5 | 42.7 | 29.3 | 39.8 | 30.5 | 47.1 | 32.3 | 45.9 | 34.6 | 47.8 | 63.3 | 45
O=C(NCCS)c1cccc(I)c1 | 15 | 26.2 | 14 | 17.3 | 14.7 | 35.3 | 15.9 | 14.9 | 11.8 | 21.3 | 43.4 | 32.1
O=C(CCS)N1CCC(c2cc(=O)[nH]c(=O)[nH]2)C1 (stereo not drawn) | 18.5 | 27.2 | 41.3 | 25.4 | 45.8 | 20.2 | 31.5 | 30.9 | 32 | 52.9 | – | –
Cc1cnc(C(C)(C)NC(=O)CCS)s1 | 12.7 | 36.6 | 37.5 | 27.2 | 31.3 | 20.1 | 21.7 | 38.4 | 31.6 | 54.7 | – | –
O=C(NCCS)C1CC(OCc2ccccc2)C1 (stereo not drawn) | 14.6 | 31.8 | 29 | 36.7 | 37.2 | 33.1 | 20.8 | 31.2 | 27.4 | 57.1 | 32.5 | 41.8
Cn1[nH]c(=O)c2c(C(=O)NCCS)cc(C3CC3)nc21 | 20.2 | 29.4 | 18.5 | 55.1 | 26.8 | 37.6 | 32.6 | 33.4 | 37.9 | 64.4 | 55.5 | 37.7
O=C(CCS)Nc1cc(Cl)c2c(c1)OCCO2 | 21.4 | 25.1 | 19.3 | 25.8 | 20.6 | 56.6 | 12.9 | 15.9 | 19.9 | 34.6 | – | –
O=C(NCCS)C(=O)c1c[nH]c2ccccc12 | 25.2 | 12.5 | 16.7 | 10.5 | 13.7 | 54.1 | 13.5 | 44.8 | 11.3 | 26.4 | 27.6 | 32.7
O=C(CCS)NCC1c2ccccc2C(=O)N1Cc1ccccc1 (stereo not drawn) | 10 | 37.2 | 31.3 | 19.3 | 28.9 | 24.3 | 20.5 | 21.8 | 25.9 | 45.8 | – | –
Cc1ccc(-c2nc(C(=O)NCCS)cs2)n1C | 7.5 | 15.2 | 8.6 | 15.5 | 9.6 | 14 | 6.7 | 12.1 | 8.8 | 13.8 | 15.4 | 16.3
CCN(CC1CCC(C(=O)OC)CC1)C(=O)CCS (stereo not drawn) | 12.5 | 40.9 | 32.8 | 35.8 | 38.8 | 30 | 49.4 | 33.7 | 34.1 | 58.6 | – | –
